# Source: article PMC4336329 (PLoS ONE, 2015)
# The campaign covered roughly 310,000 compounds. About 2,200 (0.71%) showed an effect of 50% or more. The effect is printed as a negative number. This is one part of the list.
# Target: human ether-à-go-go-related gene (hERG) potassium channel (human, UniProt Q12809)
# Test: primary screen, population patch clamp on CHO cells stably expressing hERG
# Sequence of human ether-à-go-go-related gene (hERG) potassium channel (Q12809 whole entry, looked up): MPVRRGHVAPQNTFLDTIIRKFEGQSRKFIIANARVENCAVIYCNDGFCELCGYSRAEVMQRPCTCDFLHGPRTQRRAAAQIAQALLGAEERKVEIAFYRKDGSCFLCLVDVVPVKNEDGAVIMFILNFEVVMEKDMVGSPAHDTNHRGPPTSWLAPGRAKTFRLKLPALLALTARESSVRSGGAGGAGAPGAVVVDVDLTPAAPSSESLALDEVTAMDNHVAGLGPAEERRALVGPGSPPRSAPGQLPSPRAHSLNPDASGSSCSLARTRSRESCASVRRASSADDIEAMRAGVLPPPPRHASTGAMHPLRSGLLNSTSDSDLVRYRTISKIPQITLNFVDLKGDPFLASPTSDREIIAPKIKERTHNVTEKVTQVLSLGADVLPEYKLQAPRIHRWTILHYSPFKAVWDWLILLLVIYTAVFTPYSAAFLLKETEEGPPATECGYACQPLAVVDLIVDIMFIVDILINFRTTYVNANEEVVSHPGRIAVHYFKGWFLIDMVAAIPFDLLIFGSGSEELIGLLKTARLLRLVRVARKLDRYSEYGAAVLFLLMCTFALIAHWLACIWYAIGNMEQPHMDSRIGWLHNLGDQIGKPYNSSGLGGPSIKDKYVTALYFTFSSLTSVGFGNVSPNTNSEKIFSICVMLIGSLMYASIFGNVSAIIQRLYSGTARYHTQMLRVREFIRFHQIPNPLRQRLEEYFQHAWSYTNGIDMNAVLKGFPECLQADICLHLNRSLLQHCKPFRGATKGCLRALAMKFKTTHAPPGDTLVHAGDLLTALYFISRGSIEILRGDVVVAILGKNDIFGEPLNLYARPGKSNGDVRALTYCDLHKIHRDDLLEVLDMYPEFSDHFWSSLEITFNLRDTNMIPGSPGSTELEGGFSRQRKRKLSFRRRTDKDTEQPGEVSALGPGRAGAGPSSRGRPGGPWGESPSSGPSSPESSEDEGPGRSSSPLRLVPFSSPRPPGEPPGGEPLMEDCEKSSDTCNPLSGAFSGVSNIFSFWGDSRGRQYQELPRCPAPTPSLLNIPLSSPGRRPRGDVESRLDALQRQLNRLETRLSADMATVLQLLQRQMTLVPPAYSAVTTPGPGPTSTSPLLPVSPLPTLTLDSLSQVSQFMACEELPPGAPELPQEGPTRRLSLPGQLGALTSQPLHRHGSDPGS
row,Structure (SMILES),"hERG current change (%, negative = inhibition) at 1uM"
1,Clc1ccc2nc(CSCc3ccccc3)cn2c1,-1.33%
2,O=C(NCc1ccco1)C(=S)N1CCCC1,12.6%
3,COc1ccc(C(=O)Nc2cccc3cccnc23)cc1OC,11%
4,CCOC(=O)c1sc(NC(=O)c2ccco2)nc1C,7.75%
5,O=C(O)c1csc(-c2ccccc2)n1,13.9%
6,CCN(CC)CC.CCOc1ccccc1-n1c(=S)sc2c(=O)n(-c3ccccc3)c(=S)[nH]c21,23.7%
7,CCCN(Cc1nc2cc(Cl)ccc2c(=O)[nH]1)C(=O)c1ccc(S(=O)(=O)N2CCCC2)cc1,-14.8%
8,COC(=O)c1[nH]c2ccc(Br)cc2c1NC(=O)C(C)N1CCN(C2CCCCC2)CC1 (centres unmarked),-82.6%
9,CCN(CC(=O)Nc1ccc(NC(C)=O)cc1)CC(=O)Nc1ccc(F)c(Cl)c1,6.79%
10,COc1ccc(C(=O)OCC(=O)NCCCc2ccccc2)cc1[N+](=O)[O-],4.87%
11,Cc1c(Cl)cccc1NC(=O)Cc1cccs1,12.8%
12,Cc1ccc(-n2ncc(C(=O)Nc3cc(Cl)ccc3Cl)c2C2CCNCC2)cc1.Cl,-27.6%
13,Cc1ccc(-c2nc3[nH]c(=O)cc(NC(=O)c4cccs4)n3n2)cc1,3.92%
14,CCCCNc1cc(C(=O)O)cc(S(N)(=O)=O)c1Oc1ccccc1,4.77%
15,CCOC(=O)Cn1nc(/C=C/c2ccc(C)cc2)ccc1=O,11.5%
16,CC(C)/C=C/CN1CCN(CCCc2ccccc2)C(CCO)C1 (centres unmarked),-35.7%
17,O=C(c1ccco1)N1CCCN(Cc2cn[nH]c2-c2ccc(-c3ccccc3)cc2)CC1,-7.7%
18,CC(C)(C)NC(=O)C(c1ccc(F)cc1)N(C(=O)CCC(=O)Nc1ccccn1)C1CCCC1 (centres unmarked),4.59%
19,CCCCn1nc(NC(=O)CCC)c2cc3cc(OC)ccc3nc21,13.4%
20,Cc1ccc(C)c(OCC(=O)Nc2c(C)n(C)n(-c3ccccc3)c2=O)c1,12.2%
21,Cc1ccc(C(=O)N2CCCC(N3CCN(c4ccccc4C)CC3)C2)c(=O)[nH]1 (centres unmarked),10.5%
22,O=C(C1=C(O)C(=O)N(Cc2ccco2)C1c1cccc(O)c1)c1ccco1 (centres unmarked),14%
23,COc1cc(C(=O)NCCN2C(=O)S/C(=C\c3ccc(F)cc3)C2=O)ccc1OCC(=O)N1CCOCC1,12.5%

row,Structure (SMILES),"hERG current change (%, negative = inhibition) at 1uM"
1,Cc1c(C(c2cccc(Br)c2)c2c(C)n(C)n(-c3ccccc3)c2=O)c(=O)n(-c2ccccc2)n1C.Cl,10.6%
2,Cc1ccc(S(=O)(=O)N/N=C/c2ccc(OS(=O)(=O)c3ccc(C)c([N+](=O)[O-])c3)cc2)cc1,8.08%
3,CC(NC(=O)c1cccs1)c1ccc(Cl)cc1 (centres unmarked),-0.472%
4,O=C(CCNc1ccc(F)c(Cl)c1)c1ccco1,8.86%
5,NS(=O)(=O)c1ccc(CNC(=O)C(Cc2ccccc2)NS(=O)(=O)c2ccccc2F)cc1 (centres unmarked),14.5%
6,O=C(NC1CCCCC1)[C@@H]1CC=C[C@@H]2CCN(C3CCCCC3)C(=O)[C@@H]21,11.3%
7,COc1ccc2nc(SCC(=O)N3CCCCC3)c(C#N)cc2c1,3.59%
8,COc1ccccc1C(=O)N1CCN(c2ccccn2)CC1,-17.2%
9,Cc1ccc(N(C(=O)c2ccc(S(=O)(=O)N3CCOCC3)cc2)C2C=CS(=O)(=O)C2)cc1 (centres unmarked),-3.04%
10,CCOC(=O)c1c(-c2ccccc2)csc1NC(=O)CSc1nncs1,4.2%
11,CCSc1nnc(NS(=O)(=O)c2ccc(OC)cc2)s1,4.13%
12,FC(F)(F)c1cc(Cl)c2nnc(-c3cccnc3)n2c1,14.5%
13,O=C(Cc1cccs1)Nc1cccc(-c2ccc3nncn3n2)c1,0.391%
14,O=S(=O)(NC1c2cccc3cccc(c23)C1N1CCNCC1)c1ccccc1 (centres unmarked),8.75%
15,COC(=O)c1ccccc1NC(=O)COc1ccccc1[N+](=O)[O-],0.818%
16,COCCNC(=O)c1cc2c(=O)n3cccc(C)c3nc2n1C,22.6%
17,COc1cc(CNc2ccc3c(c2)CCC3)cc(OC)c1O,10.2%
18,Nn1cnc2c([nH]c3ccccc32)c1=O,-3.75%
19,COC(=O)c1c(F)c(F)c(NCCO)c(F)c1F,-4.7%
20,CCOC(=O)N1CCC(NC(=O)C2=CCN(S(=O)(=O)c3ccc(OC)cc3)CC2)CC1,-3.7%
21,CCOC(=O)c1ccc(N2C(=O)C3C(C2=O)C(C(=O)c2ccc(Cl)cc2)N2CCCC32)cc1 (centres unmarked),15.5%
22,COc1ccc(NS(=O)(=O)c2cc(NC(=O)c3cccnc3Cl)ccc2N2CCCC2)cc1,10.2%
23,Cc1ccc(NC(=O)c2cc(-c3ccc4c(c3)OCO4)on2)cc1,15.6%

row,Structure (SMILES),"hERG current change (%, negative = inhibition) at 1uM"
1,CC(C)NC1CS(=O)(=O)CC1O (centres unmarked),3.4%
2,CCOc1ccc(-c2c(C(=O)N/N=C/C3CCCCC3)nnn2-c2nonc2N)cc1,12.5%
3,CCN(CC)S(=O)(=O)c1ccc(C(=O)N2CCN=C2SC)cc1,15.8%
4,O=C(NC(=S)N1CCc2ccccc21)c1ccccc1Br,10.7%
5,CN(C)S(=O)(=O)c1ccc(N2CCCC2)c(C(=O)OCC(=O)NC2CCCCC2)c1,3.05%
6,COc1ccc(NC(=O)c2cnc3sccn3c2=O)cc1,6.9%
7,Cc1ccc(N(CC(=O)N2CCCCCC2)S(=O)(=O)c2ccccc2)cc1,2.46%
8,O=C(CN1C(=O)C2(OCCO2)c2ccccc21)c1ccc(F)cc1,4.79%
9,Cc1ccc(S(=O)(=O)N2CCN(C)CC2)cc1C,10%
10,COc1ccc2c(c1)-c1c(sn(-c3ccc(OC)c(OC)c3)c1=S)C(C)(C)N2,10.9%
11,O=C(NCC1CCCN(C(=O)c2cccc(C(F)(F)F)c2)C1)c1ccc(F)cc1 (centres unmarked),27.7%
12,O=C(Cc1csc(NC(=O)c2ccc(F)cc2)n1)NO,9.93%
13,COc1ccc(CNC(=O)C(C)n2nc(C)n3c(cc4occc43)c2=O)cc1 (centres unmarked),8.35%
14,CCN(CC)c1ccc(S(=O)(=O)N2CCCCC2)cc1NC(=O)C1=COCCO1,8.48%
15,N/C(Cn1cncn1)=N\NC(=O)C(=O)Nc1ccccc1,20.9%
16,CCOC(=O)C1CCN(CC(=O)c2c(C)n(C)c3ccc(OC)cc23)CC1,-10.1%
17,O=C(OC1CCCCC1)c1cc2ccccc2oc1=O,1.7%
18,O=C1CC(c2nc3ccccc3[nH]2)CN1c1ccccc1 (centres unmarked),-0.133%
19,CCN(CC)S(=O)(=O)c1ccc(N2CCCC2)c(NC(=O)C2CCCCC2)c1,6.9%
20,CC(C)(C)n1nnnc1C(c1cccs1)N1CCCC2(CCCCC2)C1 (centres unmarked),7.74%
21,O=C(O)c1ccc2c(c1)CCC2,5.09%
22,COc1ccc(C2c3ccc4ccccc4c3Oc3ncn(Cc4ccco4)c(=N)c32)cc1OC (centres unmarked),3.49%
23,CCN(CC(=O)NC(C)C)Cc1nc2sc3c(c2c(=O)[nH]1)CCC3,7.51%

row,Structure (SMILES),"hERG current change (%, negative = inhibition) at 1uM"
1,CN(NC(=O)CN1C(=O)c2ccccc2C1=O)C1=NS(=O)(=O)c2ccccc21,20.7%
2,Cc1ccc(S(=O)(=O)N2CCN(C(=O)c3cc4c(s3)CCCC4)CC2)c(C)c1,8.36%
3,Cc1ccc(NC(=O)CNC(=O)c2ccc(Oc3ccccc3)cc2)nc1,11.9%
4,O=C(CCCOc1ccccc1)OCn1nnc2ccccc2c1=O,0.966%
5,COc1cc(C(C)=O)ccc1OCC(=O)Nc1ccc(Cl)c(S(=O)(=O)N2CCOCC2)c1,-0.129%
6,CCOC(=O)CCCn1ccc2cc(S(=O)(=O)N3CCCC3)ccc21,14.6%
7,C=CC[n+]1ccn(-c2nc3ccccc3nc2[N-]S(=O)(=O)c2cccs2)c1,12.5%
8,O=C(O)CN(Cc1ccco1)S(=O)(=O)c1ccccc1,5.89%
9,CCOC(=O)N1CCN(c2ccc(C(F)(F)F)cn2)CC1,7.35%
10,CCOC(=O)c1ccccc1NC(=O)CN1C(=O)NC(C)(CCc2ccccc2)C1=O (centres unmarked),-7.03%
11,CCC(C)[C@H](NC(=O)C1CC(=O)N(c2ccc3c(c2)OCO3)C1)C(=O)NC1CCCCC1 (some centres unmarked),29.5%
12,CCN(CC)C(=O)CSc1nc2[nH]ncc2c(=O)[nH]1,-18.9%
13,CO/N=C/c1cccn1-c1nccc(OC)c1C#N,13.3%
14,O=C(Nc1cccnc1)c1ccc([N+](=O)[O-])s1,-1.39%
15,O=C(Nc1cccnc1)c1ccc(Cl)c(S(=O)(=O)N2CCCCCC2)c1,6.4%
16,COc1cc(C(=O)NCC2CCCO2)cc(OC)c1OC (centres unmarked),15%
17,NC(=O)CN(C/C=C/c1ccccc1)C/C=C/c1ccccc1,23.3%
18,O=C(Nc1csc(Cl)c1)c1ccccc1,4.52%
19,COc1cc(C(=O)Sc2ccc(Cl)cc2)cc(OC)c1OC,14%
20,COc1ccc(-c2ccnc(-c3ccc(O)cc3)n2)cc1,8.12%
